Data on 47 compounds can be found in PubChem BioAssay AID1159614 (National Center for Advancing Translational Sciences (NCATS), 2016).

In all, about 45,000 compounds went through this assay and about 65 (0.1%) were called active. Calls come from the whole dose curve; as a rule, active = well fitted activation curve with a large enough effect; inconclusive = small, poorly fitted or top-dose-only effect; inactive = no such curve, though single readings can be large or run the other way. The list shows a part of the results.

Chain of UniProt P54803 (P54803 whole entry, looked up): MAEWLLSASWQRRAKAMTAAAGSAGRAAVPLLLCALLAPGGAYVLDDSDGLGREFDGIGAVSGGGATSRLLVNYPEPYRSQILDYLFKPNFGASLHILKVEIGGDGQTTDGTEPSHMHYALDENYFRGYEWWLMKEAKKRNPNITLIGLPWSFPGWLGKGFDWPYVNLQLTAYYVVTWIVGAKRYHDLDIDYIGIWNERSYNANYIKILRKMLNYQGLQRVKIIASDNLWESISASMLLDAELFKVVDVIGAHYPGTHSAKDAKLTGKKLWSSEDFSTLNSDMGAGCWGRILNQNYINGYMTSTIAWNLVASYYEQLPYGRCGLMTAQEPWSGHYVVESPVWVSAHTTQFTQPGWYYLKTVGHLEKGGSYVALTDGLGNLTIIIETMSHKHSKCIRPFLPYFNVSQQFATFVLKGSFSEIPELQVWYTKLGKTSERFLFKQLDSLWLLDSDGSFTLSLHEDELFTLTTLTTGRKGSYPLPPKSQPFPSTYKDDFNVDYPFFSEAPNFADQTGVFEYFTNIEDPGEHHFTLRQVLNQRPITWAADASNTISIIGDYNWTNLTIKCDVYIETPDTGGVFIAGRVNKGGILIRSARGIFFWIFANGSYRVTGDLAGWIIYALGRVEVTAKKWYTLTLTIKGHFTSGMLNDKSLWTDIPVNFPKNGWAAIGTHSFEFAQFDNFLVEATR

The target of this experiment is Galactocerebrosidase (Homo sapiens) (UniProt P54803). Briefly: A Novel Cell-Based Assay to Identify Small Molecules for B -Galactocerebrosidase. Note: 0% is about no effect; nearly all actives have a fitted effect of over 65% in size. The following applies: 145M-Twi-hGALC-G270D cells (Twitcher mouse brain line with human GALC G270D), HMU-beta-Gal fluorescence, 48 h; series mostly up to 57.5 µM; activation: at the top concentration. From the text:
Lysosomal storage diseases (LSDs) are caused by genetic mutations in genes encoding proteins important for normal lysosomal function. Globoid cell leukodystrophy (GLD), mostly known as Krabbe disease, is a prototype of the neurological LSDs caused by deficiency of beta-galactocerebrosidase (GALC). In brain specimens of GLD patients, psychosine levels are substantially elevated. At elevated concentrations, psychosine becomes cytotoxic to neuronal cells, particularly to oligodendrocytes (OLG), neural cells responsible for myelin formation. Therefore, the biochemical disturbances in GLD are manifested by different degrees of brain demyelination resulting in a broad spectrum of neurological manifestations. Most of the FDA-approved therapies are based on enzyme replacement therapeutic (ERT) agents, which treat non-neurological symptoms of Gaucher disease, Fabry disease, few mucopolysaccharidoses and Pompe disease. Unfortunately, in GLD, a primarily neurological LSD, ERT agents, as large molecular weight molecules unable to cross the blood-brain barrier, which makes this an inefficacious therapeutic approach. In GLD, increasing the residual GALC activity just above the critical threshold (~10% of wild type enzymatic activity), the cytotoxic levels of psychosine will be reduced, avoiding the OLGs apoptosis and the subsequent demyelination process. This will translate in disease stabilization and amelioration of GLD patient symptoms.
A cell-based assay in 1,536-well plate format was developed to implement a quantitative high-throughput screening (qHTS) assay using GLD-disease relevant cells to identify small molecules that produce enhancements of the residual enzymatic activity levels of mutants GALC found and prevalent in GLD patients. Compounds that are active may therefore have some therapeutic application for GLD. After the treatment of live cells for a determined period, using a fluorescent GALC specific substrate, the mutant residual GALC activity is measured. This cell-based qTHS assay was used to screen part of the MLPCN library for small molecule able to increase the mutant GALC enzymatic activity. In this assay, increased fluorescent signal corresponds to enhanced levels of mutant GALC residual enzymatic activity. Activation is the desired outcome for this assay.
NIH Chemical Genomics Center [NCGC]
NIH Molecular Libraries Probe Centers Network [MLPCN]
Assay Submitter (PI): Gustavo Maegawa MD,PhD, University of Florida, Gainesville, FL
2)#Two cell lines were established for the assay: 145M-Twi-hGALC-G270D (brain-derived Twitcher cell line stably expressing human GALC-G270D) and 145M-Twi-hGALC-WT (same 145M-Twi stably expressing human GALC wild type). The Twitcher is the murine C57B/6 model for GLD with naturally occurring homozygous nonsense GALC mutation. The 145M-Twi cell line was established at Maegawa lab (Ribbens J et al 2014).
a.#Media: DMEM/F12 (1:1) with 10% fetal bovine-serum (FBS) with penicillin/streptomycin (PS-1X - 100 I.U./mL of penicillin+100 ug/mL of streptomycin).
b.#The 6-Hexadecanoylamino-4-methylumbelliferyl-b-D-galactoside (HMU-B-gal) substrate was prepared as per Wiederschain et al 1992. Using 20-mL borosilicate tubes, 2.20 mg of HMU-b-Gal was added in each tube to prepare substrate-film with a final air-nitrogen stream evaporation to remove all diluent solvents.
c.#The HMUb-Gal substrate buffer consists of 0.2 M Na2HPO4 (sodium phosphate dibasic)/ 0.1 M Citric Acid with the pH adjusted to 5.2 using HCl. Sodium Azide at 0.02% and Sodium Taurocholate (NaTC) at 1 mg/mL were added to this substrate buffer.
d.#The HMU-b-Gal stopping buffer consist of 0.5 M NaHCO3 (sodium bicarbonate) /0.5 M Na2CO3 (sodium carbonate). […] Triton X-100 at 0.25% was added.
4)#Preparation of HMU-b-Gal substrate tubes
Adding 18.6 mL of the HMUb-Gal substrate buffer to each 20-mL tube (2.20 mg of HMU-b-Gal) will reach a concentration of 0.2 mM. Vortex well the tube until the solution is fully homogenized (clear cloudy solution). […]
For the compound `CCOc1ccc(CNC(=O)C2CCN(c3nn4c(=O)cc(C)nc4s3)CC2)cc1`, the “activation” value is inactive: 7.74%.
`CCOc1ccc(CCNC(=O)C2CCC(CNS(=O)(=O)c3ccc(Cl)cc3)CC2)cc1OCC` (configuration not stated): the “activation” value is inactive: -5.02%.
For the compound `COc1cccc(-n2cc(C(=O)Nc3cc(C)c(Cl)cc3OC)c3ccccc3c2=O)c1`, the “activation” value is inactive: -0.458%.
The same measure for `Cc1ccc(C)c(NC(=O)c2nnn(CC(=O)Nc3cccc(C)c3C)c2N)c1`: inactive: -1.71%; for `O=c1c2c3c(sc2n(Cc2cc(=O)n4ccccc4n2)c(=O)n1-c1ccccc1)CCC3`: inactive: -18.6%.
Turning to `O=c1cc(CN2CCN(S(=O)(=O)c3ccccc3)CC2)nc2sc(-c3ccccc3Cl)nn12`, the “activation” value is inactive: -8.18%.
For `CCc1ccc(C(=O)c2cn(CC(=O)Nc3ccc4c(c3)OCCO4)c3ccc(C)cc3c2=O)cc1`, the “activation” value was inactive: -2.19%.
In the case of `O=C(CCSCc1ccccc1Cl)N1CCN(c2ccc(F)cc2)CC1`, the “activation” value was inactive: 0.132%.
Next, `CC(Oc1ccccc1)C(=O)N1CCN(Cc2cc(=O)n3nc(-c4ccccc4Cl)sc3n2)CC1` (configuration not stated): inactive: -6.16%.
Next, `COCc1cc(C)nc2sc3c(c12)NC(c1ccccc1C(=O)O)N(c1ccc(OC)cc1)C3=O` (configuration not stated): inactive: -11%.
Next, `CC(=O)c1ccc(NC(=O)COc2ccccc2-c2nc(-c3ccccc3)no2)cc1`: inactive: -1.06%; `O=C(CS(=O)(=O)c1nc(-c2ccc(Cl)cc2)cn1-c1ccccc1)Nc1ccc(F)cc1F`: inactive: -39.8%.
Take `Cc1ccc(NC(=O)C(Cc2ccccc2)NS(=O)(=O)c2cccs2)cc1Cl` (configuration not stated): the “activation” value is inactive: -7.4%.
Regarding `Cc1ccc(-c2noc(CSc3nnc(C)n3-c3ccc(C)cc3)n2)cc1`, the “activation” value was inactive: -14.3%.
The same measure for `COc1ccccc1CNC(=O)CN1C(=O)c2cccnc2Oc2ccccc21`: inactive: 1.83%; for `COc1ccc(-c2cc(C(C)=O)c(C)n2CCC(=O)NC2CCCCC2)cc1`: inactive: -8.46%; for `Cc1ccc(-n2c(SCCC(C)C)nc3sc4c(c3c2=O)CC(C)(C)OC4)cc1`: inactive: -17.5%.
As to `CCOc1ccc(CNC(=O)C2CCN(C(=O)c3sccc3-n3cccc3)CC2)cc1`, the “activation” value is inactive: -17.3%.
The same measure for `COc1ccc(NC(=O)CCCc2nnc3n(CCC(C)C)c(=O)c4sccc4n23)cc1Cl`: inactive: -5.02%; for `COc1ccc(OCCSc2nc3ccccc3n2CC(=O)N2CCOCC2)cc1`: inactive: -9.68%; for `COc1ccc(/C=C/c2onc(C)c2S(=O)(=O)N2CCC(C(=O)N3CCCCC3)CC2)cc1`: inactive: -8.44%.
As to `COc1cc(CNc2ccc3[nH]c(=O)[nH]c3c2)cc(Br)c1OCc1ccc(F)cc1`, the “activation” value is inactive: -6.29%.
The same measure for `CN(C)c1cccc(C(=O)N2CCC(c3ccncc3)CC2)c1`: inactive: 0.415%; for `COc1ccccc1CNC(=O)c1cc2cc(C)ccc2n1C`: inactive: -10.9%.
Consider `COCCNc1ncnc2onc(-c3ccc(F)cc3)c12`, for which the “activation” value was inactive: -28.3%.
For `CC(C)Oc1ccc(C(=O)N2CC(=O)Nc3ccc(F)cc3C2c2ccc(F)cc2)cc1` (configuration not stated), the “activation” value is inactive: -6.18%.
Next, `CCOc1ccc(CNC(=O)CN2C(=O)C3CCCCN3c3ccc(C(=O)N4CCCC4)cc32)cc1` (configuration not stated): inactive: -12.6%.
On to `CCc1cccc(C)c1NC(=O)C(CC)n1ncn2c(cc3cc(C)ccc32)c1=O` (configuration not stated), for which the “activation” value is inactive: -15.7%.
In the case of `Cc1ccc(C)c(NC(=O)Cn2c(=O)n(Cc3ccc4c(c3)OCO4)c(=O)c3ccc(C(=O)NC4CCCCC4)cc32)c1`, the “activation” value was inactive: -7.83%.
The same measure for `Cc1ccc(S(=O)(=O)c2nc(S(=O)(=O)c3ccc(C)cc3)c(NC(C)C)s2)cc1`: inactive: -11.2%; for `CCOc1ccc(CNC(=O)c2cnc3sc(N4CCCCCC4)nn3c2=O)cc1OC`: inactive: -8.18%; for `O=C(CSc1nc(-c2ccccc2)nc2c1CCCC2)c1ccc(Cl)cc1`: inactive: -12.4%.
The same measure for `O=C(O)CCc1ccc(-c2cccs2)n1CC(=O)Nc1ccccc1C(F)(F)F`: inactive: -17.7%.
The same measure for `COc1ccc(Cn2ccc3nc(C)c(C(=O)N4CCN(c5cc(C)ccc5C)CC4)cc3c2=O)cc1`: inactive: -8.7%; for `CCCNC(=O)C1CCC(Cn2c(=O)c3sccc3n(CC(=O)Nc3ccccc3C)c2=O)CC1` (configuration not stated): inactive: -9.8%.
On to `Cc1cccc(NC(=O)C2CCN(S(=O)(=O)c3ccc4c(c3)CCCC(=O)N4)CC2)c1`, for which the “activation” value was inactive: -12.1%.
With `Cc1ccc2c(c1)CC(C)N2S(=O)(=O)c1nnc(NC(=O)C(C)C)s1` (configuration not stated), the “activation” value was inactive: -11.1%.
With `CCCN(C(=O)c1sc2nc3n(c(=O)c2c1C)CCCC3)c1ccccc1C`, the “activation” value was inactive: -15.7%.
Next, `Cc1c(Cl)cccc1NC(=O)C(=O)NCC(c1cccnc1)N1CCN(c2ccccc2)CC1` (configuration not stated): inactive: -16.6%; `COc1ccc(NC(=O)Cn2cc(C(=O)C3CCCCC3)c3ccccc32)cc1`: inactive: -16.7%.
The same measure for `Cc1cc(=O)n(CC(=O)Nc2cccc([N+](=O)[O-])c2)c(-n2nc(C)cc2C)n1`: inactive: -15.1%; for `CC(NC(=O)c1ccc2nc(Cc3ccccc3)oc2c1)c1ccccc1` (configuration not stated): inactive: -8.69%.
Next, `COc1ccc(-c2cc(C(F)(F)F)nc(SCCC(=O)Nc3cccc(O)c3)n2)cc1`: inactive: -8.06%.
As to `COC(=O)c1c(NC(=O)c2cc3nc(-c4ccc(Br)cc4)cc(C(F)(F)F)n3n2)sc2c1CCCC2`, the “activation” value is inactive: -10.7%.
Next, `CCc1ccc(Nc2cc(C(=O)NCCCN(C)c3ccccc3)c3ccccc3n2)cc1`: inactive: -6.55%.
Next, `COc1ccc(OC)c(NC(=O)N2CCC(N3CCN(Cc4ccc(F)cc4)C(=O)C3=O)CC2)c1`: inactive: -9.6%; `CCc1noc(-c2ccc(N(C)Cc3ccc(OC)cc3)c([N+](=O)[O-])c2)n1`: inactive: -13.3%.
